# Measured values from the supplement of paper PMC3334620.
# The full ranking holds about 33,000 sequences; the median of “E-score (-0.5 to 0.5)” is about -0.012, and the highest 2% start at about 0.29. Some of the results follow.
# Molecular target: T1, Ybr033w (UniProt P38073)
# T1 sequence: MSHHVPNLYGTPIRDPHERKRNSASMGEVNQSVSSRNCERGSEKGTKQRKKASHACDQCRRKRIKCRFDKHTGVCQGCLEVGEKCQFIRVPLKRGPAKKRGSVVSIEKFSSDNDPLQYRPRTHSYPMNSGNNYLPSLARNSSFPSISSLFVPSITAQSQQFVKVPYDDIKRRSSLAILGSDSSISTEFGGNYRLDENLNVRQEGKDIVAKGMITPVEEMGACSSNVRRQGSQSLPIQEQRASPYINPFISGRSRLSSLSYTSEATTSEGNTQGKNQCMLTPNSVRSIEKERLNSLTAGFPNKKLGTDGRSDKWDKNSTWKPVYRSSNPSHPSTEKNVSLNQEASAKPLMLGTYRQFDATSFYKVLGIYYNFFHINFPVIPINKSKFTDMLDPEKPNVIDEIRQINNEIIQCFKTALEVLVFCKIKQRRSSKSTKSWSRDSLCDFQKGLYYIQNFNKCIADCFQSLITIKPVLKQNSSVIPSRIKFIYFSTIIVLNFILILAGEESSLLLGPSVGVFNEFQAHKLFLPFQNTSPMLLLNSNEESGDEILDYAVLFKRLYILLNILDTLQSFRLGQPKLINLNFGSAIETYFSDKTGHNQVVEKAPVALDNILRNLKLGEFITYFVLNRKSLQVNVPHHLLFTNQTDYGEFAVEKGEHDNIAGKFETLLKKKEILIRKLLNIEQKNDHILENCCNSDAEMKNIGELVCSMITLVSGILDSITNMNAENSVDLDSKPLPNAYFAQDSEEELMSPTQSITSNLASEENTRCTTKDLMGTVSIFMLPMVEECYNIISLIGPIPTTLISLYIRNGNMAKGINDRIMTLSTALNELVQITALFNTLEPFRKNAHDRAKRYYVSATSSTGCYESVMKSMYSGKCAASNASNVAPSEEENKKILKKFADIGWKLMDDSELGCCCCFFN
# Assay: PBM E-score (8-mer binding enrichment) (E-score (-0.5 to 0.5)); higher = stronger / more preferred TF binding; most listed sequences are background and not binding sites
# Details: protein concentration: 200 nM; construct: GST-full length
# Protocol: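 Universal 'all 10-mer' protein binding microarrays (Agilent AMADID 015681) probed with GST-tagged S. cerevisiae TFs (full-length or DBD) made by in vitro transcription/translation (PURExpress), about 100-200 nM. Bound TF was detected with fluorescent anti-GST. Each ungapped 8-mer (which stands for itself and its reverse complement) is scored by the PBM enrichment score (E-score), a modified Wilcoxon-Mann-Whitney statistic from -0.5 to +0.5, computed with the Universal PBM Analysis Suite. Scale: above 0.35 generally sequence-specific binding.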
row,Sequence,PBM E-score
1,AACTAATA,0.298
2,CCAGGTAA,-0.0631
3,CAAAGCCG,-0.00452
4,GGGAATCA,0.0407
5,ACAAAAGT,0.0857
6,TAAAGGCA,0.131
7,AAGGGACG,-0.22
8,CGAGTAGA,-0.00374
9,ACTTGATG,0.218
10,ACAAAATC,0.254
11,GGGTTGAA,-0.201
12,ATCAGTCC,-0.423
13,CCTTAAGG,0.273
14,CGCATACG,-0.0753
15,ACCTGCGT,0.00259
16,CGCTAGGA,-0.051
17,GATGGGGA,-0.187
18,AACCACAT,0.00349
19,GAAGTAGC,-0.105
20,GGCCTTTA,-0.212
21,GTGGCCAA,0.0246
22,GGGGGCGA,-0.35
23,AGTCTCAC,-0.0327
24,CATGAACG,-0.0887
25,CTGGCACC,-0.266

row,Sequence,PBM E-score
1,AATCGATT,0.0284
2,CAGCCACA,0.0002
3,CCCAAGCC,-0.171
4,CTGCGTAC,-0.21
5,ACACGTGC,-0.249
6,CAACGGTA,-0.111
7,ATAAGGAC,-0.0427
8,ACGGGAGC,-0.128
9,CACAGCAG,-0.148
10,TAGGTCCA,0.0175
11,CCAGATGA,-0.109
12,AATACGTA,0.179
13,TATCTTAA,0.121
14,ATTATCAC,0.162
15,ATTAGCAA,0.219
16,ACCGCCGC,-0.142
17,AAAGGTTA,0.0425
18,TATCGTAA,0.135
19,ACCGCGTC,-0.0679
20,GGTGATAC,-0.0918
21,AAAAGCAG,-0.108
22,CACCGCAC,-0.299
23,GCATGGCA,-0.0442
24,ACGGGTAA,0.0288
25,CAGCTTGG,-0.105

row,Sequence,PBM E-score
1,GCGAAACC,0.108
2,GCGCCCAA,-0.0472
3,TCTATAGA,0.172
4,AAAGGAAC,0.163
5,GAGGCCCC,-0.354
6,AGGCCCAT,-0.318
7,CTAACCTC,0.115
8,CCGAGAGC,-0.273
9,TATCAAAA,0.162
10,ATATACAA,0.268
11,GATCACAA,0.0194
12,CTCGTCAC,0.0546
13,ACTACATC,0.0912
14,GAAACGGC,-0.0362
15,CAACTTTA,0.244
16,GCCCGAGA,0.0314
17,CCAAGCAC,-0.0119
18,AAATAATG,0.227
19,CCGAATAC,0.105
20,GGACGAAC,0.00863
21,GCTAAGCA,-0.0595
22,CACATTGA,0.0793
23,AACGTAGT,0.0865
24,ATATGGTA,0.11
25,CGTTGTAA,-0.0617

row,Sequence,PBM E-score
1,ACCCTGGC,-0.23
2,GTAAGATA,0.0869
3,GCCGGTCA,-0.264
4,GGTGTTAA,0.00765
5,CGAGTTAC,0.111
6,ACCATTGC,-0.0971
7,GCGAAACA,0.0147
8,AGAGGTTC,0.0157
9,CTCACGAG,-0.0974
10,CTCAATTC,-0.0331
11,ATCATGCA,-0.0407
12,GTGTGTAA,0.0961
13,AGAACCAC,-0.00822
14,ACGATCGT,-0.115
15,GTGGGGAA,0.0367
16,GGCCTGTA,-0.154
17,CCTCTTGA,0.0387
18,CTGCGCAC,-0.0465
19,AAGGCCAT,-0.094
20,ACTTTTGG,0.0216
21,AAACCGTG,-0.0939
22,GCCGCATA,0.117
23,CCGTTACA,0.102
24,CCTGCAGC,-0.0205
25,TATCCATA,0.273

row,Sequence,PBM E-score
1,TGCCAACA,0.0786
2,AGTTAGTG,0.0411
3,AAATAGAT,0.289
4,TATCGGGA,0.0117
5,ACATCCCT,0.0484
6,ATGTCCTA,-0.0661
7,TGTAGGAA,0.0534
8,AAGAGCTG,-0.147
9,AGGTTGAA,0.141
10,CACGTCCC,-0.326
11,AAATACCG,0.18
12,AGGCCCAA,-0.065
13,CGCCACAG,-0.179
14,TTATAGAA,0.216
15,AGCAGTCA,-0.0659
16,ATTGAAAG,0.111
17,CCGAAATA,0.254
18,CCTGTTTC,0.0175
19,TACGACGA,0.0508
20,GGGGCCCA,-0.372
21,CAAATCAG,0.0133
22,CATTCCGA,0.15
23,CTGATAGC,-0.0429
24,GGCTCATA,-0.00879
25,AGCACCTC,0.0336

row,Sequence,PBM E-score
1,CCTAAATA,0.118
2,ACCCCAAA,0.0335
3,ATATTTCA,0.255
4,AACAAGGG,-0.0261
5,AAACAAAC,0.229
6,CGCATCAA,0.104
7,AAAATGGT,0.319
8,CTCCCAAA,-0.0178
9,AAGATCTG,-0.0306
10,ATTGACCC,0.0147
11,ACTCAACG,-0.0931
12,ATAGGTGG,-0.108
13,ACTTAAGG,0.0158
14,ACGGCGCT,-0.218
15,AACGACGA,0.179
16,GAGAGCTA,-0.0943
17,ACCGTACA,-0.00124
18,GAAGATGA,0.0501
19,GTACGCCA,-0.147
20,ACTAAACG,0.09
21,CTGACTAC,-0.104
22,AACGCGGC,-0.247
23,CCGGACAA,0.0878
24,GACCTCCA,-0.263
25,TCCGGCGA,0.0646

row,Sequence,PBM E-score
1,GGAGTATA,0.0551
2,GTGATCGA,0.0735
3,CGGTCTTC,-0.0816
4,CCCATGAG,-0.15
5,GGAAAGCC,-0.0161
6,ATGAATGA,0.175
7,TGGTGCAA,-0.175
8,ATTGGCCA,-0.00978
9,GTCCCTTA,-0.0797
10,CGATTCCG,-0.0765
11,AGCTTACA,0.127
12,CTCGTAGA,-0.194
13,GGGAGGAA,-0.0362
14,TAGCGGCA,-0.164
15,AAACCAGC,-0.0846
16,GAAGTGGA,0.108
17,ACCGGCGA,-0.144
18,ACTGTGAT,0.0145
19,CATATAGG,-0.0375
20,TACTGACA,0.144
21,ATAAGCAC,0.0234
22,CTCTATAA,0.153
